{
  "source": "PubChem BioAssay AID624170",
  "about": "(National Center for Advancing Translational Sciences (NCATS), 2012)",
  "note": "Screen size: about 410,000 compounds; about 850 (0.21%) were called active. Inconclusive means that the source gave no clear call. Such entries were picked first, then a sample of the others. The call rests on the fitted dose curve; in most records, active means well fitted inhibition curve with a large enough effect; inconclusive means small, poorly fitted or top-dose-only effect, or another doubt; inactive means no such curve, though single readings can be large or run the other way. No potency is given beside an inconclusive call; the fits are too rough. Potency means the concentration at half of the fitted maximal effect; tags describe the fitted curve by direction and shape.",
  "data": [
    {"biological_target": "Glutaminase kidney isoform, mitochondrial (Homo sapiens) (UniProt O94925)", "sequence (O94925 whole entry, looked up, canonical isoform)": "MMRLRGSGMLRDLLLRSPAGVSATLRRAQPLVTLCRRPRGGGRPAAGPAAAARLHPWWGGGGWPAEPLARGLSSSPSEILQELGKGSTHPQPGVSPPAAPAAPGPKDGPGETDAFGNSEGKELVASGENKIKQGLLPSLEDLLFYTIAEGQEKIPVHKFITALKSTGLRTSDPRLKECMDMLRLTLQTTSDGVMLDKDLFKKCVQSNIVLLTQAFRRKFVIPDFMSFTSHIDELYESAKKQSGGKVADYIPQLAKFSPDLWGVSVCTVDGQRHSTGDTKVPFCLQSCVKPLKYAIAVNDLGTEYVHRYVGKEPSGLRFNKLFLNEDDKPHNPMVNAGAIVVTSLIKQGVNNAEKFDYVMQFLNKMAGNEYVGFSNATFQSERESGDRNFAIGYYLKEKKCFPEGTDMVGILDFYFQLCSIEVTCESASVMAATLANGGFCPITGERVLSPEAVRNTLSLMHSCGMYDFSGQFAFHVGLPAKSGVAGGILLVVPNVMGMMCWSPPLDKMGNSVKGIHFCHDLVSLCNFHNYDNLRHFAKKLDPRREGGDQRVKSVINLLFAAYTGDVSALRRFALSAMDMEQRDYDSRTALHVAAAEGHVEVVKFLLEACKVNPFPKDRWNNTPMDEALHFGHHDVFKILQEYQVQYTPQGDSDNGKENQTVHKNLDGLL", "test": "qHTS for Inhibitors of Glutaminase (GLS)", "conditions": "GLS enzymatic activity, qHTS titration; series mostly up to 45.5 µM", "method_in_brief": "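Read-out is an Amplex red fluorescence increase coupled through glutamate oxidase and HRP, measured before and after 30 min room-temperature incubation. hKGA is in 45 mM KH2PO4 (pH 8.2) with 0.02% Tween-20; glutamine added as 1mM solution.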", "values": [
      {"compound": "NS(=O)(=O)c1ccc(NC(=O)CN2CCN(S(=O)(=O)c3ccc(F)cc3)CC2)cc1", "Potency": "inconclusive [inhibitor, single point]"},
      {"compound": "CN1CCN(Cc2nc(N)nc(Nc3ccc4c(c3)OCCO4)n2)CC1", "Potency": "inconclusive [inhibitor, single point]"},
      {"compound": "CCCCCCCCCCCCCCCC[N+](C)(C)Cc1ccc(F)cc1", "Potency": "inconclusive [inhibitor, single point]"},
      {"compound": "CSc1ncc(Cl)c(C(=O)C(C#N)c2nc3c(C)cc(C)cc3c(=O)[nH]2)n1", "note": "(centres undefined)", "Potency": "inconclusive [inhibitor, single point]"},
      {"compound": "Cc1ccc(N/N=C/c2c(C)c(C#N)c(=O)n(C)c2O)cc1C", "Potency": "inconclusive [inhibitor, single point]"},
      {"compound": "COc1cc(/C=C2\\SC(=S)N(C(Cc3ccccc3)C(=O)O)C2=O)ccc1O", "note": "(centres undefined)", "Potency": "inactive"},
      {"compound": "COc1cc([N+](=O)[O-])ccc1NC(=O)N1CCC2(CC1)Nc1ccccc1-n1cccc12", "Potency": "inconclusive [inhibitor, single point]"},
      {"compound": "COC(=O)c1ccc2c(=O)n(CCc3ccc(S(N)(=O)=O)cc3)c(SCC(=O)C(C)(C)C)nc2c1", "Potency": "inactive"},
      {"compound": "O=C(COc1ccccc1/C=C\\c1[nH]c(=O)[nH]c(=O)c1[N+](=O)[O-])Nc1ccccc1", "Potency": "inconclusive [inhibitor, single point]"},
      {"compound": "Cc1ccc(N(Cc2ccccc2)C(=O)c2cc(S(=O)(=O)N3CCOCC3)ccc2C)cc1", "Potency": "inactive"},
      {"compound": "CN(C)c1cc(-c2ccc(Cl)c(Cl)c2)oc(=O)c1Cl", "Potency": "inactive"},
      {"compound": "CCN(CC)c1ccc(N=C2C(=O)Nc3ccccc32)cc1", "Potency": "inconclusive [inhibitor, single point]"},
      {"compound": "COc1cccc(C2CC(=O)N3CN(c4ccccc4F)CSC3=C2C#N)c1", "note": "(centres undefined)", "Potency": "inactive"},
      {"compound": "Cc1cccc(/C=N/n2c(-c3ccncc3)n[nH]c2=S)c1", "Potency": "inconclusive [inhibitor, partial curve, poor fit]"},
      {"compound": "COc1ccc2c(C(=O)NCCCCO)c(-c3ccc(S(C)(=O)=O)cc3)sc2c1", "Potency": "inactive"},
      {"compound": "C[C@H]1c2cccc(O)c2C(O)=C2C(=O)[C@]3(O)C(O)=C(C(N)=O)C(=O)[C@@H](N(C)C)C3[C@@H](O)C21", "note": "(some centres undefined)", "Potency": "inactive"},
      {"compound": "COCCNS(=O)(=O)c1ccc2c(c1)Cc1cc(S(=O)(=O)NCCOC)ccc1-2", "Potency": "inconclusive [inhibitor, single point]"},
      {"compound": "COc1ccc(S(=O)(=O)N2CCC(C(=O)NC3CCCCC3)CC2)cc1OC", "Potency": "inconclusive [inhibitor, single point]"},
      {"compound": "CN(CC(=O)NCCc1ccc(F)cc1)Cc1cccs1", "Potency": "inconclusive [inhibitor, single point]"},
      {"compound": "COc1ccc(OC(=O)C2CC(=O)N(c3ccc(C)cc3)C2)cc1", "note": "(centres undefined)", "Potency": "inconclusive [inhibitor, partial curve]"},
      {"compound": "NC(CSC(c1ccccc1)(c1ccccc1)c1ccc2c(c1)OCO2)C(=O)O", "note": "(centres undefined)", "Potency": "inactive"},
      {"compound": "COc1ccc2[nH]c3c4c(ccc3c2c1)C(=O)C=CC4=O", "Potency": "inconclusive [inhibitor, full curve]"},
      {"compound": "COc1ccc(S(=O)(=O)NCCc2csc(-c3cccc(F)c3)n2)cc1OC", "Potency": "inactive"},
      {"compound": "Cc1csc(NC(=O)c2nc3nccc(C)n3n2)n1", "Potency": "inconclusive [inhibitor, single point]"},
      {"compound": "Cc1ccc(CNS(=O)(=O)c2ccc(-n3cccn3)cc2)cc1", "Potency": "inactive"},
      {"compound": "CN(CC(=O)Nc1ccccc1C(F)(F)F)C(=O)CSc1nnnn1C", "Potency": "inconclusive [inhibitor, single point]"},
      {"compound": "O=C(O)C1=C2C(=O)Nc3cccc(c32)C2(C1)C(=O)Nc1ccccc12", "note": "(centres undefined)", "Potency": "inconclusive [inhibitor, partial curve]"},
      {"compound": "Cc1ccc(C2C=C(c3ccccc3)Nc3nc(NS(=O)(=O)c4ccc(C)cc4)nn32)cc1", "note": "(centres undefined)", "Potency": "inconclusive [inhibitor, single point]"},
      {"compound": "O=C(Cn1c(/C=C/c2ccccc2)nc2ccccc21)Nc1ccc(F)cc1", "Potency": "inconclusive [inhibitor, partial curve, poor fit]"},
      {"compound": "CCOC(=O)c1cc2c(=O)n3ccccc3nc2n(Cc2ccco2)c1=NC(=O)c1cccc(C)c1", "Potency": "inactive"},
      {"compound": "Oc1cc2c(cc1C(c1ccc(Cl)c(Cl)c1)N1CCCC1)OCO2", "note": "(centres undefined)", "Potency": "inactive"},
      {"compound": "O=C(CNCc1ccco1)Nc1ccc(Oc2ccccc2)cc1", "Potency": "inactive"},
      {"compound": "Cc1ncc(COP(=O)(O)O)c(CN)c1O", "Potency": "inconclusive [inhibitor, single point]"},
      {"compound": "COC(=O)c1ccc2c(=O)n(CCCCCC(=O)N3CCN(c4cc(C)ccc4C)CC3)c(=O)[nH]c2c1", "Potency": "inconclusive [inhibitor, partial curve, poor fit]"},
      {"compound": "CCOc1cc(/C=C2\\C(=N)N3N=C(S(C)(=O)=O)SC3=NC2=O)ccc1OCCOc1cccc(OC)c1", "Potency": "inactive"},
      {"compound": "CCOc1ccc(S(=O)(=O)Nc2ccccc2C(=O)Nc2ccccc2N2CCOCC2)cc1", "Potency": "inactive"},
      {"compound": "CC(C)CNC(=O)C1Nc2ccccc2C2C=CCC12", "note": "(centres undefined)", "Potency": "inactive"},
      {"compound": "COc1ccc(NC(=O)N(C)C[C@H]2OCCCC[C@H](C)Oc3ccc(NS(=O)(=O)c4cn(C)cn4)cc3C(=O)N([C@H](C)CO)C[C@@H]2C)cc1", "Potency": "inconclusive [inhibitor, partial curve, poor fit]"},
      {"compound": "N#Cc1cnc(NN)nc1", "Potency": "inconclusive [inhibitor, single point]"},
      {"compound": "CCC(C)NC(=O)CSC1=Nc2ccccc2C2=NC(CC(=O)NCc3ccc(F)cc3)C(=O)N12", "note": "(centres undefined)", "Potency": "active: 10 µM"},
      {"compound": "COCCCNC(=O)c1ccc2c(=O)n(Cc3ccccc3OC)c(=S)[nH]c2c1", "Potency": "inconclusive [inhibitor, partial curve]"},
      {"compound": "O=C(CSCc1ccc(Cl)cc1)Nc1ccc(S(=O)(=O)N2CCOCC2)cc1", "Potency": "inactive"},
      {"compound": "CCOc1ncccc1C(=O)Nc1nnc(C(CC)CC)s1", "Potency": "inconclusive [inhibitor, partial curve]"},
      {"compound": "COc1cccc(C=C(C(C)=O)C(=O)c2ccccc2)c1", "Potency": "inconclusive [inhibitor, partial curve, poor fit]"},
      {"compound": "CCC(c1nnnn1Cc1ccc(OC)cc1)N1CCN(c2ccc(OC)cc2)CC1", "note": "(centres undefined)", "Potency": "inconclusive [inhibitor, single point]"},
      {"compound": "O=C(NCCN1CCOCC1)c1cc(-c2ccc(Cl)cc2Cl)on1", "Potency": "inactive"},
      {"compound": "C=CCc1cccc2cc(C(=O)Nc3ccccc3C(=O)O)c(=O)oc12", "Potency": "inactive"},
      {"compound": "Cc1ccc(S(=O)(=O)c2c(C)nn(-c3ccccc3)c2OC(=O)c2ccc(Br)o2)cc1", "Potency": "inactive"},
      {"compound": "CC(CNC(=O)COc1ccccc1)OC(=O)Nc1cccc(Cl)c1", "note": "(centres undefined)", "Potency": "inconclusive [inhibitor, single point]"},
      {"compound": "COc1ccc(OC)c(C2C(C(=O)c3sc(C)nc3C)=C(O)C(=O)N2CCN2CCOCC2)c1", "note": "(centres undefined)", "Potency": "inconclusive [inhibitor, single point]"},
      {"compound": "CCCCOc1ccccc1C1CC(=O)Nc2cc(C)c(C)cc21", "note": "(centres undefined)", "Potency": "inactive"},
      {"compound": "CCN(CC(=O)Nc1ccc(NC(C)=O)cc1)C(=O)C1CC(=O)N(CCc2ccc(OC)c(OC)c2)C1", "note": "(centres undefined)", "Potency": "inconclusive [inhibitor, partial curve]"},
      {"compound": "COCCNC(=O)C1CC(c2cccc([N+](=O)[O-])c2)=NO1", "note": "(centres undefined)", "Potency": "inconclusive [inhibitor, single point]"},
      {"compound": "Cn1c(=O)c(C#N)c(-c2ccc(F)cc2)c2cc(C(=O)c3cc(Cl)cc(Cl)c3O)cnc21", "Potency": "inactive"},
      {"compound": "CCOC(=O)N1CCN(C(=O)Nc2ccc3oc(C)nc3c2)CC1", "Potency": "inconclusive [inhibitor, single point]"},
      {"compound": "COc1ccc(-n2cc(C(=O)O)c(=O)cc2C)cc1", "Potency": "inconclusive [inhibitor, single point]"},
      {"compound": "COc1ccc(CC(=O)N(C)CC(=O)Nc2ccccc2SC)cc1", "Potency": "inconclusive [inhibitor, single point]"},
      {"compound": "CC(NS(=O)(=O)c1ccccc1)C(=O)Nc1ccc2c(c1)OCCO2", "note": "(centres undefined)", "Potency": "inactive"},
      {"compound": "CCCCNC(=O)C1(C)CCN1C(=O)c1cc(-c2cccs2)oc1C", "note": "(centres undefined)", "Potency": "inconclusive [inhibitor, single point]"},
      {"compound": "CCc1ccc(NC(=O)Cn2c(=O)n(CCCC(=O)NCc3ccc4c(c3)OCO4)c(=O)c3ccccc32)cc1", "Potency": "inconclusive [inhibitor, single point]"},
      {"compound": "COc1ccc(CSCC(=O)N/N=C/c2ccc(OCC(=O)N3CCCCC3)cc2)cc1", "Potency": "inactive"},
      {"compound": "Cc1ccc(S(=O)(=O)NNC(=O)c2cnn(-c3ccc(Cl)cc3)c2C(F)(F)F)cc1", "Potency": "inconclusive [inhibitor, single point]"},
      {"compound": "C[C@H](C(=O)O)c1cccc(C(=O)c2ccccc2)c1", "Potency": "inactive"},
      {"compound": "Cc1cc(C(=O)CSc2nnc(-c3ccccc3)n2-c2ccccc2)c(C)n1-c1ncn[nH]1", "Potency": "inconclusive [inhibitor, partial curve, poor fit]"},
      {"compound": "COc1cccc(/C=N/NC(=O)c2c(-c3ccccc3)noc2C)c1OC", "Potency": "inactive"},
      {"compound": "CSc1ccc(-c2nc3cccc(C)n3c2Nc2ccc3c(c2)OCO3)cc1", "Potency": "inactive"},
      {"compound": "O=C(O)CC/C(=N\\Nc1ccc([N+](=O)[O-])cc1)c1ccccc1", "Potency": "inconclusive [inhibitor, partial curve]"},
      {"compound": "O=C(NCc1ccccn1)c1ccc2c(=O)n3nc(Nc4ccccc4)sc3nc2c1", "Potency": "inconclusive [inhibitor, single point]"},
      {"compound": "Nc1nc(Nc2ccccc2)sc1C(=O)c1ccccc1", "Potency": "inconclusive [inhibitor, partial curve]"}
    ]}
  ]
}
